# Screen size: about 50,000 compounds; about 800 (1.6%) showed an effect of 50% or more. The list shows a part of the results.
# Biological target: Bcl-2-like protein 10 (Homo sapiens) (UniProt Q9HD36)
# Assay: Phenotype converters, Bcl-B/TR3 peptide binding displacement, primary biochemical FP (AID 1240);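 also: 0% = Bcl-B with tracer peptide and DMSO and 100% = tracer peptide lacking Bcl-B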
# Conditions: GST-Bcl-B / FITC-TR3 peptide fluorescence polarization; stronger effect = higher value; compound at 3.75 mg/L
# UniProt Q9HD36, sequence (Q9HD36 whole entry, looked up): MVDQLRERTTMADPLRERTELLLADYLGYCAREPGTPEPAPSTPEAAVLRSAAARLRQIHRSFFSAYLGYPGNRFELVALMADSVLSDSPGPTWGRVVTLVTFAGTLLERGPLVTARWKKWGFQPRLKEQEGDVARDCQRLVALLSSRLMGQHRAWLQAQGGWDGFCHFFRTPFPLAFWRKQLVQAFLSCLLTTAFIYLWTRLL
row,SMILES,displacement [%]
1,COc1cc(/C=N/NC(=O)c2cccnc2)cc(OC)c1O,5.1
2,CCOC(=O)c1ccc(NC(=O)c2cc(OCC)cc(OCC)c2)cc1,14.2
3,Cc1c(C(=O)Nc2ccc(I)cc2Cl)oc2ccc(Cl)cc12,-8.7
4,COc1ccccc1NC(=O)Nc1cccc2cccnc12,-10.4
5,CN1CCN(S(=O)(=O)c2ccc(-c3ccc(S(=O)(=O)N4CCN(C)CC4)cc3)cc2)CC1,3.8
6,O=[N+]([O-])c1ccc(N2CCN(S(=O)(=O)c3ccccc3)CC2)cc1NCCc1ccccc1,7.8
7,CCOc1ccc(NC(=O)CC2S/C(=N\N=C3/C=C(C)CC(C)(C)C3)NC2=O)cc1 (stereo unspecified),-3.9
8,C=CCNC(=O)COc1cc(C)c(Cl)c(C)c1,-8.5
9,Cc1ccc2nc(SCC(=O)Nc3ccc(/C=C/c4ccccc4)cc3)[nH]c2c1,4
10,O=C(CCNC(=O)/C(=C\c1cccc([N+](=O)[O-])c1)NC(=O)c1ccco1)OCc1ccccc1,0.4
11,Cc1ccc(S(=O)(=O)Nc2ccc(OC(=O)c3ccc(Cl)cc3)cc2)c(C)c1,5.5
12,COc1ccc(Nc2ncnc3ccc(C)cc23)cc1,9
13,CCCC(C)NC(=O)c1c(-c2c(Cl)cccc2Cl)noc1C (stereo unspecified),-5.9
14,O=C(NC(=S)Nc1cc([N+](=O)[O-])cc(Cl)c1O)c1ccc(Br)cc1,-13.6
15,COc1cc(/C=C2\C(=O)NN(c3ccc(Cl)c(Cl)c3)C2=O)c([N+](=O)[O-])cc1OC,16.2
16,COC(=O)c1c(NC(=O)CCN2C(=O)c3ccccc3C2=O)sc2c1C(C(=O)OC)CC2 (stereo unspecified),-18.6
17,O=C1C(=O)N(c2cccc(Br)c2)C(c2cccc([N+](=O)[O-])c2)/C1=C(/O)c1ccccc1 (stereo unspecified),-7.6
18,CCN(CC)c1ccc(/C=C2/C(=O)NN(c3ccc(C)c(Cl)c3)C2=O)c(O)c1,59.2
19,COc1ccc(C2CC(C(F)(F)F)n3ncc(C(=O)NCc4ccco4)c3N2)cc1OC (stereo unspecified),0.5
20,CC(=O)Nc1ccc(S(=O)(=O)Nc2cccc3cccnc23)cc1,-24.6
21,CCOC(=O)c1c(NC(C)=O)sc2c1CCc1ccccc1-2,-8.5
22,CS(=O)(=O)N(Cc1ccccc1)c1ccc(C(=O)N2CCc3ccccc3C2)cc1,3.7
23,CC(C)CN1C(=O)c2ccc(C(=O)NC3CCCCC3)cc2C1=O,10.4

row,SMILES,displacement [%]
1,Cc1cc(=O)oc2cc(OCC(=O)OCc3ccccc3)c(Cl)cc12,-6.4
2,CCOC(=O)Cn1c(=N)n(Cc2ccccc2Cl)c2ccccc21,3.5
3,COc1ccccc1/C=C(\NC(=O)c1ccccc1)C(=O)NCc1ccco1,-2.4
4,CC(C)CNC(=O)c1ccc2c(c1)C(=O)N(CC(C)C)C2=O,5.1
5,CCOC(=O)C1=C(C)N=c2s/c(=C/c3ccc(OC)cc3)c(=O)n2C1c1sccc1C (stereo unspecified),4.4
6,Cc1ccc(-n2cnc3sc(C)c(C)c3c2=O)cc1,-0.9
7,COc1ccc(C(=O)Nc2nc(C)c(C(C)=O)s2)cc1,3.9
8,CCOC(=O)c1c(NC(=O)c2ccccc2F)sc(C(=O)Nc2ccc3c(c2)OCO3)c1C,-9.3
9,O=C(NCc1cccs1)C(=O)Nc1cccc(C(F)(F)F)c1,8.3
10,CCCCSc1nc2ccc(NC(C)=O)cc2s1,-3.2
11,O=C(NC(=S)N1CCOCC1)c1ccc(Cl)cc1Cl,3.2
12,O=C1CC(=O)N(c2ccc(Br)cc2)N1,17.7
13,CCN(CC)CCP(=O)(c1ccccc1)c1ccccc1,-1.3
14,O=C(Nc1ccccc1C(F)(F)F)c1ccc(-c2cc(Cl)ccc2Cl)o1,-4.6
15,O=C1c2[nH]nc(-c3ccccc3)c2C(c2ccccc2F)N1c1ccccc1 (stereo unspecified),-3.9
16,O=C(Nc1ccccc1C(=O)Nc1ccc(Cl)cc1)c1ccc([N+](=O)[O-])cc1,4
17,Cc1ccc(/C=C/C(=O)Nc2cccc3cccnc23)o1,91.4
18,COc1ccc(C(=O)N2CCN(C(=O)c3cccs3)CC2)cc1,-12.3
19,C=CCN1C(=O)C(Cc2ccc(F)cc2)S/C1=N\N=C\c1ccco1 (stereo unspecified),8.1
20,Cc1ccc(NC(=S)NC(=O)/C=C/c2ccccc2)cc1C,0.3
21,O=C(c1cccs1)N1CCN(Cc2ccncc2)CC1,-1.6
22,CC(=O)N1c2ccccc2NC2=C(C(=O)CC(c3ccccc3)C2)C1c1ccccc1Cl (stereo unspecified),-12
23,CC1=CC(c2ccccc2)n2c(nc3ccccc32)N1 (stereo unspecified),13.1

row,SMILES,displacement [%]
1,O=C1C2C(C(=O)N1c1cccc(Cl)c1)N1CCCN1C2c1ccccc1 (stereo unspecified),2.6
2,CN(C)CC(O)CN1C(=O)N(CN2C(=O)N(CC(O)CN(C)C)C(=O)C2(C)C)C(C)(C)C1=O (stereo unspecified),-11
3,O=c1oc2cc(OCc3ccc(Cl)cc3)ccc2c2c1CCCC2,-4.7
4,O=C(Nc1c(F)c(F)c(F)c(F)c1F)c1cccs1,2.8
5,CCOC(=O)c1c(NC(=O)c2cccc([N+](=O)[O-])c2)sc2c1CCC(CC)C2 (stereo unspecified),2.8
6,CCOc1ccc(NC(=O)CN(c2ccc(C)cc2)S(=O)(=O)c2ccc(SC)cc2)cc1,11.6
7,COc1ccc(-c2cccc(=O)o2)cc1,13.4
8,CCOC(=O)C1=CN(c2ccc(OCC)cc2)C=C(C(=O)OCC)C1c1ccc(OC)cc1,1.2
9,CCN(CC)CCCCOc1c(C)ccc(C)c1C,17.4
10,COc1cc2c(cc1NC(=O)c1ccc(OC)c([N+](=O)[O-])c1)oc1ccccc12,-9.6
11,COC(=O)CN(c1ccc(C)cc1)S(C)(=O)=O,5.3
12,NC(=O)c1ccc(C(=O)c2ccc(N)cc2)cc1N,-1.2
13,O=C(NCC1CCCO1)c1nn2c(c1Br)NC(c1cccs1)CC2C(F)(F)F (stereo unspecified),-0.6
14,Clc1ccc(C(Sc2ncn[nH]2)c2ccccc2)cc1 (stereo unspecified),17.4
15,Cc1c(Cl)cccc1NC(=O)/C=C/c1ccccc1Cl,16.8
16,CC(=O)Oc1ccc(/C=C2\C=C(c3ccc(C)cc3)OC2=O)cc1,34.5
17,COC(=O)CSC1=NC(=O)/C(=C/c2cccc(OC)c2)S1,-11.3
18,CCc1ccc(NC(=O)C(=O)NCCN2CCOCC2)cc1,2.1
19,O=c1nc(-c2ccccc2F)c2cc(Cl)ccc2[nH]1,6.9
20,N#Cc1ccccc1OCC(=O)N/N=C/c1ccccc1,5.9
21,O=C(Nc1ccccc1)Nc1nnc(-c2ccc(Cl)cc2)s1,16.1
22,O=C(c1ccc(Cl)cc1)N1N=C(c2ccc(Cl)cc2)CC1(O)C(F)(F)F (stereo unspecified),5.2
23,Cc1cc(C)c(OCCCN2CCOCC2)c(C)c1,1.3

row,SMILES,displacement [%]
1,O=C(Nc1ccc(-c2nc3ccccc3c(=O)o2)cc1)c1ccc(Cl)cc1,10.6
2,CCCCn1c2ccccc2n2c(C(=O)OC)c(C)nc12,-0.9
3,Cc1onc(-c2ccccc2Cl)c1C(=O)NCC#N,7.9
4,CC1CCN(c2nc(-c3ccccc3O)nc3ccccc23)CC1,7.4
5,Cc1cc(C)n(C(=O)c2cc(=O)[nH]c3ccccc23)n1,2.4
6,CCOc1ccc(Oc2cc(NC(=O)c3ccco3)cc([N+](=O)[O-])c2)cc1,-4
7,O=C(Nc1ccc(C(=O)N2CCOCC2)cc1)c1c(Cl)cccc1Cl,3.9
8,CCOc1ccc(CC(C(=O)NC)C(=O)NC)cc1CN(C)C,-21
9,Cc1ccc(-c2nc3ncccc3o2)cc1NC(=O)c1ccc(Br)o1,-4.6
10,CCOc1ccc(NC(=O)c2ccccc2NC(=O)c2cccs2)cc1,1.9
11,CCOC(=O)Nc1sc2c(c1C(N)=O)CCC(C)C2 (stereo unspecified),-4.4
12,O=C(COc1ccc2ccccc2c1)Nc1cccc2ccccc12,0.2
13,CCOc1cccc(C2CC(=O)Nc3c2cc(Br)c2ccccc32)c1 (stereo unspecified),-7.4
14,COc1ccc(/C=C2/Sc3ccccc3C2=O)cc1,14.5
15,CS(=O)(=O)N(Cc1ccc(Cl)cc1)c1ccc(C(=O)N2CCN(c3ccccc3)CC2)cc1,-35.5
16,O=C(NCc1cccnc1)c1nn2c(c1Cl)NC(c1cccs1)CC2C(F)(F)F (stereo unspecified),-2.7
17,COc1ccc2oc(=O)c(C(=O)Nc3ccccc3C(=O)O)cc2c1,16.9
18,COc1ccc2c(c1)C(NC(=O)C(F)(F)F)CC2=O (stereo unspecified),13.2
19,O=C(NCCCc1ccccc1)c1cc2ccccc2oc1=O,3.1
20,Cc1cccc(NC(=O)C(=O)NCCc2ccc(Cl)cc2)c1,12.1
21,CC(C)Oc1ccccc1NC(=O)c1cc(F)c(F)cc1Cl,-6.8
22,COc1ccc(-c2cc(C(=O)Nc3cccc(C(C)=O)c3)c3ccccc3n2)cc1OC,4.1
23,Cc1cccc(C)c1NC(=O)c1ccc(CN2CCc3ccccc3C2)cc1,11.7

row,SMILES,displacement [%]
1,CCOC(=O)N1CCN(c2ccc(C(=O)CC)cc2F)CC1,-12.7
2,CC(C)Cn1cc(F)c(=O)n(CC(C)C)c1=O,9.8
3,O=C1CCCC2=C1C(c1ccc(Cl)cc1)Nc1ccccc1N2 (stereo unspecified),-5.7
4,O=C(Nc1ccc(O)cc1)Nc1ccc(Cl)cc1,-1.5
5,Cc1ccc2[nH]c(C)c(CN(C)Cc3ccccc3)c(=O)c2c1,-15.8
6,O=C(Nc1ccc(Oc2ccccc2)cc1)c1ccc(Cl)cc1Cl,-9.4
7,CC1=NN(C(=O)OC(C)(C)C)C(O)(c2ccc(C)cc2)C1 (stereo unspecified),12.6
8,Cc1ccc(N2C(=O)c3ccccc3NC2c2ccccc2F)cc1 (stereo unspecified),8
9,O=[N+]([O-])c1cccc(-c2noc(COc3ccc4ccccc4c3)n2)c1,2.7
10,Cc1cc(C(=O)Nc2ccccc2C(=O)O)ccc1NC(=O)CC(C)C,1.4
11,CN(C)c1ccc(NC(=O)c2ccc(I)cc2)cc1,6.9
12,N#CCCC1(CCC#N)c2ccccc2-c2ncccc21,-4.2
13,O=C1/C(=C\c2cc(Cl)c(O)c(Cl)c2)SC(=S)N1Cc1ccccc1,-20.1
14,NNC(=O)c1n[nH]c2c1CCCCCCCCCC2,-28.4
15,N=c1sc(Cc2cccc(Cl)c2)cn1CC(=O)c1ccccc1,-6.7
16,O=C(N/N=C/c1ccc(Cl)cc1)c1cc(C2CC2)[nH]n1,-3.3
17,CC1(C)CC(=O)C(Sc2ccc([N+](=O)[O-])cc2)=C(O)C1,17
18,O=C(O)c1ccccc1/C=C1\SC(=S)N(c2cccc(C(F)(F)F)c2)C1=O,-12
19,COc1ccc(OC)c(N(CC(=O)NC(C)C)S(C)(=O)=O)c1,11.6

# From PubChem BioAssay AID1240 (Sanford-Burnham Center for Chemical Genomics, 2008)
